The IC50 is the midpoint of a concentration-inhibition curve. A higher IC50 goes with weaker potency.

SMILES strings stand for the structures.

The values that follow come from US9346764B2, “Imidazolidinedione compounds and their uses” (HINOVA PHARMACEUTICALS INC., priority 2011, dated 2016).

The test system of test [1] is human prostate cancer LNCaP cells. The test is described as follows: Inhibition of the growth of prostate cancer cells (MTT), LNCaP. The conditions noted are these: R1881 added, 96 hours. In kind it is cell-based. How it is done: (§1) The ability of compounds to inhibit the growth of prostate cancer cells was tested:
(§2) First, the human prostate cancer LNCaP (purchased from ATCC, USA) and 22RV1 (purchased from SIBS) cells were transferred to a RPMI1640 culture medium containing 10% charcoal-stripped fetal bovine serum (FBS). After cultured for three days, the cells were digested with 0.25% trypsin and counted through trypan blue staining. The cells were plated, with 100 μL cell suspension containing 5000 cells per well. 200 μL medium was added to the wells around the cell plate for avoiding edge effects.
(§3) The next day, 6 drug concentrations was prepared (48.6 μM, 19.44 μM, 7.776 μM, 3.11 μM, 1.24 μM, 0.5 μM) before administration, and 100 μl, of corresponding compound at corresponding concentration was added into each well of a cell plate. The cell plate was placed in a cell incubator for 30 min, 10 μL of 4 nM R1881 was added into each well and homogeneously mixed. Upon the addition of R1881, the cell plate was placed in a cell incubator and incubated at 37° C., under 5% CO2 for 96 hours. Afterwards, 40 μL of MTT (prepared in PBS, concentration is 2.5 mg/mL) was added into each wells, and incubated at 37° C. for 2 hours. The supernatant was sucked off, and 100 μL of DMSO was added into each well. The plate was shaken by a vibrator for 10 min for dissolving formazan. The plate was read at 570 nm wavelength using a microplate reader in the unit of OD. The inhibition rate of test compounds was calculated with the following equation: IR(%)=(ODcontrol−ODsample)/(ODcontrol−ODblank)×100%
(§4) The inhibition rate curve of test compounds was plotted using the software XLFit (Formula 205), which can calculate the 50% inhibition rate, i.e. IC50.

Test [2] deals with human prostate cancer 22RV1 cells. Description: Inhibition of the growth of prostate cancer cells (MTT), 22RV1. In kind it is cell-based. The conditions noted are these: R1881 added, 96 hours. The method, then: as §1, §2, §3, §4

`[2H]c1cc(C#N)c(C(F)(F)F)c([2H])c1N1C(=O)C(C)(C)N(c2ccc(C(=O)NC)c(F)c2)C1=S` [Example 13, 4-{7-[4-cyano-3-trifluoromethyl-2,6-dideuterophenyl]-5,5-dimethyl-4-oxo-2-thio-1-imidazolidinyl}-2-fluoro-N-methyl benzamide]: the IC50 in test [1] was determined as 2.74 µM; in test [2], 15.6 µM.

`[2H]C([2H])([2H])NC(=O)c1ccc(N2C(=S)N(c3ccc(C#N)c(C(F)(F)F)c3)C(=O)C2(C([2H])([2H])[2H])C([2H])([2H])[2H])cc1F` [Example 10, 4-{7-[4-cyano-3-(trifluoromethyl)phenyl]-5,5-hexadeuterodimethyl-4-oxo-2-thio-1-imidazolidinyl}-2-fluoro-N-trideuteromethyl benzamide] showed an IC50 in test [1] of 1.49 µM.

`[2H]c1cc(C(=O)NC([2H])([2H])[2H])c(F)c([2H])c1N1C(=S)N(c2ccc(C#N)c(C(F)(F)F)c2)C(=O)C1(C)C` [Example 8]: the IC50 in test [1] amounted to 1.01 µM; in test [2], 18.7 µM.

Take `CNC(=O)c1ccc(N2C(=S)N(c3ccc(C#N)c(C(F)(F)F)c3)C(=O)C2(C)C)cc1F` [Example 4, 4-{7-[4-cyano-3-(trifluoromethyl)phenyl]-5,5-dimethyl-4-oxo-2-thio-1-imidazolidinyl}-2-fluoro-N-methyl-benzamide, reference compound]: the IC50 came out at 8.93 µM in test [1] and 30.6 µM in test [2].

In the case of `[2H]C([2H])([2H])C1(C([2H])([2H])[2H])C(=O)N(c2ccc(C#N)c(C(F)(F)F)c2)C(=S)N1c1ccc(C(=O)NC)c(F)c1` [Example 9, 4-{7-[4-cyano-3-(trifluoromethyl)phenyl]-5,5-hexadeuterodimethyl-4-oxo-2-thio-1-imidazolidinyl}-2-fluoro-N-methyl benzamide], the IC50 turned out to be 1.86 µM in test [1] and 26.5 µM in test [2].

For the compound `[2H]c1cc(C(=O)NC)c(F)c([2H])c1N1C(=S)N(c2ccc(C#N)c(C(F)(F)F)c2)C(=O)C1(C)C` [Example 7, 4-{7-[4-cyano-3-(trifluoromethyl)phenyl]-5,5-dimethyl-4-oxo-2-thio-1-imidazolidinyl}-3,5-dideutero-2-fluoro-N-methyl benzamide], the results for the IC50 in test [1] and in test [2] were 2.2 µM and 19.7 µM, respectively. Taken in the same sequence, the figures for `[2H]C([2H])([2H])NC(=O)c1ccc(N2C(=S)N(c3ccc(C#N)c(C(F)(F)F)c3)C(=O)C2(C)C)cc1F` [Example 6, 4-{7-[4-cyano-3-(trifluoromethyl)phenyl]-5,5-dimethyl-4-oxo-2-thio-1-imidazolidinyl}-2-fluoro-N-trideuteromethylbenzamide] were 0.99 µM and 13.4 µM.
